Reference: publication PMC4336329 (PLoS ONE, 2015)
About 2,200 (0.71%) of roughly 310,000 compounds showed an effect of 50% or more. The effect is printed as a negative number. The list shows a part of the results.

target: human ether-à-go-go-related gene (hERG) potassium channel (human, UniProt Q12809); experiment: primary screen, population patch clamp on CHO cells stably expressing hERG
Sequence (Q12809 whole entry, looked up): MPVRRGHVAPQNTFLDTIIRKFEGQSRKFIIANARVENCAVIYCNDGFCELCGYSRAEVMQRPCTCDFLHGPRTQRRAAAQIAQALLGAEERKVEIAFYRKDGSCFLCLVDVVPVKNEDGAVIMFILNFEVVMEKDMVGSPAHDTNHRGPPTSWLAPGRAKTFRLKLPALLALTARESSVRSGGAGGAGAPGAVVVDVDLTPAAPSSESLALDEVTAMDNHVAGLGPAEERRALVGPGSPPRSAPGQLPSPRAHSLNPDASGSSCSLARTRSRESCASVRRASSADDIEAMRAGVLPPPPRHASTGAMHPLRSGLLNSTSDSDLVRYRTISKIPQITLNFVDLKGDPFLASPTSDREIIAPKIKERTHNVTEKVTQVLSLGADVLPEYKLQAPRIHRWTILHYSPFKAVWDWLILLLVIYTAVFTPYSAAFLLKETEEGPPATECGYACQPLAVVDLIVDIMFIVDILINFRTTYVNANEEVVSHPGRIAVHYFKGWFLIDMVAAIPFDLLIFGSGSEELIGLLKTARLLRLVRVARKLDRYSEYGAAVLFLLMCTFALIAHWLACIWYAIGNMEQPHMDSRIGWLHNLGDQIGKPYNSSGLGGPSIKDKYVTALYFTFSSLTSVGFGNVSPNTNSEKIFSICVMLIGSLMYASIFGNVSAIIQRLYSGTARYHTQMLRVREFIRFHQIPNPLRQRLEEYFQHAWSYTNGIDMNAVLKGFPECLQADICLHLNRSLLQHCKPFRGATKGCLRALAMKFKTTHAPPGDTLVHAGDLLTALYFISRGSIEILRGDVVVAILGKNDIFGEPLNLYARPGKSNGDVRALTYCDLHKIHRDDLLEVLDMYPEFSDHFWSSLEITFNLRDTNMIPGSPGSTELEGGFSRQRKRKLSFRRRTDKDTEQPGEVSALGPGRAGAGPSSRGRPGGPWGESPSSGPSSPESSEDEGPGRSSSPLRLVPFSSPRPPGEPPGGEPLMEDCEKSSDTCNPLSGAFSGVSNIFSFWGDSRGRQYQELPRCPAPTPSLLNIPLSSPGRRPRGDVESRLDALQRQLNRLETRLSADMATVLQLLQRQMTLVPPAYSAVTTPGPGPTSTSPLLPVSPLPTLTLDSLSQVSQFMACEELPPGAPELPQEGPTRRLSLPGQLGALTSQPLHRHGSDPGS

Structure (SMILES)	hERG current change (%, negative = inhibition) at 1uM [%]
CCN(C(=O)COC(=O)c1cccc(S(=O)(=O)N2CCOCC2)c1)C1CCS(=O)(=O)C1 (centres unmarked)	3.29
CC(C)Cc1nnc(NC(=O)CCC(=O)N2CCN(c3ccc([N+](=O)[O-])cc3)CC2)s1	-34.8
S=c1nc(-c2cccc(Cl)c2)[nH][nH]1	12.8
O=C(Nc1nnc(S(=O)(=O)N2CCCCCC2)s1)c1ccccc1Br	10.8
O=C1CC(N2CCN(Cc3ccc4c(c3)OCO4)CC2)C(=O)N1c1cccc(Cl)c1 (centres unmarked)	-5.79
COc1ccc(C(=O)Nc2ccc(C)cc2C(=O)c2ccccc2)cc1	17
O=C(Nc1ccc(N2CCOCC2)cc1)C1(c2ccc(Cl)cc2)CCC1	11.9
O=C(COc1ccccc1)N/N=C/c1ccc(O[C@@H]2O[C@H](CO)[C@@H](O)[C@H](O)[C@H]2O)cc1	6.74
O=C(c1ccc([N+](=O)[O-])cc1)N(C1=NCCCCS1)c1ccccc1	3.32
CCOc1ccc(-c2nnc(N(CC)C(=O)C3CCC3)s2)cc1	6.77
Cc1nn2c(-c3ccncc3)nnc2c2ccccc12	-1.4
COc1ccc(-c2noc(CCCC(=O)Nc3ccc(C(N)=O)cc3)n2)cc1	21.7
CCC(C)C(=O)Nc1c2c(nc3c1CCC3)CCCC2 (centres unmarked)	4.8
Cc1csc(NC(=O)CSc2nnc(-c3cc(C)on3)o2)n1	20.6
Cc1ccccc1OCCn1cnc2c(N)ncnc21	13
Cc1ccc(N(CC(=O)NC(C)C)C(=O)CCC(=O)Nc2nccs2)cc1	11
Cc1nc2ccccc2c2oc(C(=O)Nc3ccc4c(c3)OCCO4)cc12	9.89
Cc1cc(OCCOc2cccc3cccnc23)cc(C)c1Cl	-7.97
CN1Cc2c(c(C#N)c(N)n(C)c2=S)CC1(C)C	6.71

Structure (SMILES)	hERG current change (%, negative = inhibition) at 1uM [%]
CC(C)(C)NC(=O)C(c1ccccn1)N(C(=O)c1ccc2c(c1)OCCO2)C1CCCC1 (centres unmarked)	6.78
CC(C)Cn1c(N)c(C(=O)CSc2ccccc2)c(=O)n(C)c1=O	17.7
CCCc1ccc(S(=O)(=O)N(C)S(=O)(=O)c2ccc(F)cc2)cc1	8.42
COc1ccc(C(=O)NCCS(=O)(=O)NCc2cccs2)cc1	3.8
CN1CCN(c2ccc(S(=O)(=O)N3CCCCC3)cc2NC(=O)CCc2ccccc2)CC1	-16.9
COc1ccc(Cc2nnc(N/N=C(\C)c3ccccc3)[nH]c2=O)cc1OC	14.8
c1cncc(CSc2ccc(-c3ccc4c(c3)OCO4)nn2)c1	7.2
CCOc1ccc2[nH]c(=O)c(C(c3nnnn3Cc3ccco3)N3CCCC(C)C3)cc2c1 (centres unmarked)	11.6
COc1ccc(C2C([N+](=O)[O-])=C(N)Oc3c2c(=O)oc2ccccc32)cc1 (centres unmarked)	8.92
CC(C)(C)OC(=O)N1CCC(NC(=O)c2[nH]cnc2C(=O)Nc2ccon2)CC1	2.9
CCOc1ccc(NC(=O)CSC(N)=O)cc1	14.5
CCOC(=O)c1sc(NC(=O)Nc2ccccc2Cl)cc1C	6.33
CN(Cc1c(F)cccc1Cl)C(=O)c1ccc2ccccc2n1	5.58
COCCn1c(SCC(=O)N2CCOCC2)nc2c(c1=O)SCC2	2.47
Cn1c(C(=O)N2CCC(C(=O)NCc3ccccc3)CC2)cc2sccc21	17.4
COc1ccccc1Oc1coc2cc(OC(=O)N3CCOCC3)ccc2c1=O	-22.4
COC(=O)Nc1c(C)nn(Cc2ccccc2C)c1C	-0.0507
COCCCNC(=O)c1ccc(Cn2c(=O)c3ccccc3n(Cc3cc(C)ccc3C)c2=O)cc1	-7.73
COc1ccc(/C=C2\CCc3ccccc3C2=O)cc1Cn1cccn1	9.56

Structure (SMILES)	hERG current change (%, negative = inhibition) at 1uM [%]
Cc1cccn2cc(CCNC(=O)Cc3cccs3)nc12	6
COc1cc2cc(CCCOC(=O)c3ccc(F)cc3)oc(=O)c2cc1OC	14.6
Cc1ccc(-c2nc(NC(=O)c3ccc(S(=O)(=O)N(CCC#N)CCC#N)cc3)sc2-c2ccccc2)cc1	6.48
Cn1ncc2c(NNC(=O)C3CCCCC3)ncnc21	16.3
CCCN1CCc2c(sc(NC(=O)c3ccc(S(=O)(=O)N(C)c4ccccc4)cc3)c2C(=O)NC)C1	-11.9
Cn1cc(S(=O)(=O)N2CCCC(C(=O)O)C2)cn1 (centres unmarked)	11.4
Cc1ccc2nc(N(CCCN(C)C)C(=O)CN3C(=O)c4ccccc4C3=O)sc2c1.Cl	-1.44
Cc1ncoc1C(=O)Nc1ccccc1C(N)=O	6.87
C/C(=N\NC(=S)NC1CCCCC1)c1ccc(OC(F)F)cc1OC(F)F	2.56
O=C(C1=C(O)C(=O)N(c2ncccn2)C1c1ccc(Cl)cc1)c1ccco1 (centres unmarked)	14.8
O=C(Nc1ccccc1)Nc1ccc2snnc2c1	14.6
O=C(O)c1ccc(-n2c(/C=C/c3ccccc3)nc3ccccc3c2=O)cc1	2.81
COc1ccc(N2CCN(C(=O)CN(C)S(=O)(=O)c3cnc[nH]3)CC2)cc1	13.6
CN(C(=O)c1ccc2c(Cl)c3c(nc2c1)CCC3)c1ccccc1	23.1
COc1ccc(OC)c(-c2nnc(SCC(=O)N3CCOCC3)o2)c1	13.8
CN(C(=O)CCN1CCCO1)C1CCCN(Cc2ccccc2F)C1 (centres unmarked)	24.2
O=C(NC1CCOCC1)C1CCC(=O)N(CCc2cccc(F)c2)C1 (centres unmarked)	5.26
CCOC(=O)CCNC(=O)N1CCCC(C(=O)c2ccc3c(c2)OCO3)C1 (centres unmarked)	0.66
